Test results as given in publication PMC7150477.
No constants are given. Whether binding was seen depends on the method and setting. For part of these data: In cells and extracts the contact can be indirect. Some results given as binding are weak or reduced against the parent protein; the word gives no strength.

Chains of the proteins cited; added tags and fusions are not shown. Lines headed by an entry give the natural chain unless they say otherwise; changes in a name come on top.
UniProt P01106: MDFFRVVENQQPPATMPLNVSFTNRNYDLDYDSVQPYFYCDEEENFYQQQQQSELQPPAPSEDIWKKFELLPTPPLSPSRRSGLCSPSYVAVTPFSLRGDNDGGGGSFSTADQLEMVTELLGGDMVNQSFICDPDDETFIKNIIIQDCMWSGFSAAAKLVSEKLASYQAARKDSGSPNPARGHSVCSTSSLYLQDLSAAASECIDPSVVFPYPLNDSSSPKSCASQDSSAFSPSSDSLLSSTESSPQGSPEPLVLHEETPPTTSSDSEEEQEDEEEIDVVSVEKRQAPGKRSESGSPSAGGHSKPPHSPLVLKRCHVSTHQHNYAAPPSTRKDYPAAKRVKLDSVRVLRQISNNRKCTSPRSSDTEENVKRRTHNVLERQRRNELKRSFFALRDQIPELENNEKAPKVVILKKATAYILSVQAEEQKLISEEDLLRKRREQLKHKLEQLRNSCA
UniProt O14744: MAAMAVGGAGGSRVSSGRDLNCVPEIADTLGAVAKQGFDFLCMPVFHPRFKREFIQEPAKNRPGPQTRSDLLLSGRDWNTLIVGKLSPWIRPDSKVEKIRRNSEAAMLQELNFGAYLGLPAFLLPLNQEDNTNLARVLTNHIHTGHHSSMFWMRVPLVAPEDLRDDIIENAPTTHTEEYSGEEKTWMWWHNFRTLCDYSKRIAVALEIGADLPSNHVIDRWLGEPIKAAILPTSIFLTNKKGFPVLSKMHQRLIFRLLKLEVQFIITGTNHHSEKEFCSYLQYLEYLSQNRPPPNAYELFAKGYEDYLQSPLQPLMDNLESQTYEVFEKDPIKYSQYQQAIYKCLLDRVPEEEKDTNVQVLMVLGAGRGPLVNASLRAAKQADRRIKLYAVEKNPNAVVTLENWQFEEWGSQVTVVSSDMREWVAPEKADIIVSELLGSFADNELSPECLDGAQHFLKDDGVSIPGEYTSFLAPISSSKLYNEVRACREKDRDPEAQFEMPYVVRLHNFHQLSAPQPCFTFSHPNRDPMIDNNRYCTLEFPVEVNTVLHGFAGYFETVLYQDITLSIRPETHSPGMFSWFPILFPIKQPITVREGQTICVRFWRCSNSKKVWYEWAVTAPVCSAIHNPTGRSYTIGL

What was measured:
[1] = target: His-tagged c-Myc (UniProt P01106); assay: pull-down; purified His-tagged c-Myc pre-adsorbed to nitrilotriacetic acid-nickel beads, incubated with purified GST or GST-PRMT5 fragments F1, F2 or F3; both purified
[2] = target: Flag-tagged PRMT5 (human) (UniProt O14744); assay: co-IP; anti-Flag antibody-conjugated sepharose beads precipitate Flag-PRMT5 from cellular extracts of SGC7901 cells overexpressing it; endogenous c-Myc detected by Western blot; IgG as negative control
[3] = target: GST-PRMT5 (wild-type) (human) (UniProt O14744); assay: pull-down; GST pull-down: purified GST or GST-PRMT5 (wild type or mutant) as bait, purified His-tagged c-Myc as prey, Western blot with c-Myc antibody; both purified
[4] = target: GST-PRMT5 R488A (human) (UniProt O14744); assay: as above

For “GST-PRMT5 F1 (amino acids 1-354) (from UniProt O14744 1-354) (domain or fragment)”, the binding [1] was “no binding”.
With “endogenous c-Myc (from UniProt P01106 1-454)” the binding [2] was “binds”.
“GST-PRMT5 F3 (amino acids 454-637) (from UniProt O14744 454-637) (domain or fragment)” was tested, and the binding [1] was “binds”.
“GST-PRMT5 F2 (amino acids 355-453) (from UniProt O14744 355-453) (domain or fragment)” was tested, and the binding [1] was “no binding”.
“His-tagged c-Myc (from UniProt P01106 1-454)” was tested, and the binding [3] was “binds” and the binding [4] was “binds”.
